The source of these data is the supplement of paper PMC7266297.

In one test the test system is KB-3-1. As to the kind of experiment: growth inhibition relative to DMSO control (SRB); cervical cancer cells: KB-3-1 is the parent and KB-V1 overexpresses MDR1; SRB is the sulforhodamine B stain; higher = more growth inhibition. The settings on record: 1 µM; 72 h.
A further test deals with KB-V1. The description is as above. The settings on record: 1 µM; 72 h.

Structures can show the parent of a compound that is named as a salt. The list shows a part of the results. Single values are uncertain, as repeats are few or missing.
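Also: Read-out is SRB optical density at 490 nm, with the control being wells given 0.5% DMSO vehicle, and compound added one day after cells were plated.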

Turning to `CN1CCN(C(=O)c2cc3cc(Cl)ccc3[nH]2)CC1`, the values for the growth inhibition in the test with KB-3-1 and in the test on KB-V1 were below 0% and 3.51%, respectively.

Take `CC1(C)CCC2=C(O1)c1ccccc1C(=O)C2=O` [Beta-Lapachone]: the growth inhibition in the test with KB-3-1 stood at 0.442%; with KB-V1, 1.77%.

Consider `NS(=O)(=O)c1ccc(NC(=O)Nc2ccc(F)cc2)cc1`, for which the growth inhibition in the test on KB-3-1 came to 19.8%; in the test on KB-V1, 8.1%.

Take `CCC(CC)CC1(C(=O)Nc2ccccc2SC(=O)C(C)C)CCCCC1`: the growth inhibition in the test on KB-3-1 and with KB-V1 was below 0% each time.

With `O=C(Nc1c[nH]nc1-c1nc2ccc(CN3CCOCC3)cc2[nH]1)NC1CC1`, the results for the growth inhibition in the test with KB-3-1 and in the test with KB-V1 were 82.5% and 80.1%, respectively.

For the compound `C=CC(=O)Nc1cccc(Nc2nc(Nc3ccc(N4CCN(C(C)=O)CC4)cc3OC)ncc2C(F)(F)F)c1`, the growth inhibition in the test with KB-3-1 and in the test with KB-V1 was below 0% in each case.

As for `CC(C[N+](C)(C)C)OC(N)=O` (stereo not given) [Bethanechol chloride], the growth inhibition with KB-3-1 was found to be 26.9%; with KB-V1, 6.72%.

In the case of `COC(=O)[C@]12CCC(C)(C)C[C@H]1[C@H]1C(=O)C=C3[C@@]4(C)C=C(C#N)C(=O)C(C)(C)[C@@H]4CC[C@@]3(C)[C@]1(C)CC2` [Bardoxolone Methyl], the figures for the growth inhibition with KB-3-1 and in the test with KB-V1 were 100% and 97.5%, respectively.

For `CNS(=O)(=O)Cc1ccc2[nH]cc(CCN(C)C)c2c1` [Sumatriptan Succinate], the growth inhibition is 12.7% in the test on KB-3-1 and 34.4% with KB-V1.

As for `CCc1c(C(=O)NCCc2ccc(N3CCCCC3)cc2)[nH]c2ccc(Cl)cc12`, the values for the growth inhibition in the test with KB-3-1 and in the test with KB-V1 were 12.1% and 13.5%, respectively.

For the compound `CC(C)N(CCCNC(=O)Nc1ccc(C(C)(C)C)cc1)C[C@H]1O[C@@H](n2cc(Br)c3c(N)ncnc32)[C@H](O)[C@@H]1O`, the growth inhibition was 28.9% in the test with KB-3-1 and 5.93% in the test with KB-V1.

Take `Cc1ccccc1C(=O)Nc1ccc(C(=O)N2CCCC(N(C)C)c3ccccc32)cc1` (stereo not given) [Mozavaptan]: the growth inhibition in the test with KB-3-1 is below 0%; in the test on KB-V1, 31.5%.

Turning to `N#CCNC(=O)c1ccc(-c2ccnc(Nc3ccc(N4CCOCC4)cc3)n2)cc1`, the growth inhibition is below 0% in the test on KB-3-1 and 40.2% with KB-V1.

For `NC(=O)Nc1sc(-c2ccc(F)cc2)cc1C(N)=O`, the growth inhibition with KB-3-1 is 28%; in the test with KB-V1 it was 8%.

For `C[C@H](NC(=O)/C(C#N)=C/c1cccc(Br)n1)c1ccccc1`, the growth inhibition in the test on KB-3-1 came out at 13.5%; with KB-V1, 37.5%.

`COc1ccc(C2CNC(=O)C2)cc1OC1CCCC1` (stereo not given) [Rolipram]: the growth inhibition was found to be 16.5% with KB-3-1 and 31% in the test on KB-V1.

`CNC(=O)c1ccccc1Sc1ccc2c(/C=C/c3ccccn3)n[nH]c2c1` [Axitinib]: the growth inhibition in the test with KB-3-1 was found to be 83%; in the test on KB-V1, 67.2%.

Turning to `CC[N+](CC)(CC)CCOc1cccc(OCC[N+](CC)(CC)CC)c1OCC[N+](CC)(CC)CC` [Gallamine Triethiodide], the growth inhibition in the test on KB-3-1 came out at 31.3%; with KB-V1, 21.2%.

Turning to `CCOC(=O)[C@H](CCc1ccccc1)N[C@@H](C)C(=O)N1[C@H](C(=O)O)C[C@@H]2CCC[C@@H]21` [Ramipril], the growth inhibition with KB-3-1 came to 47.5%; in the test on KB-V1, 23.5%.

Consider `O=c1cc(N2CCOCC2)oc2c(-c3ccccc3)cccc12`, for which the growth inhibition in the test on KB-3-1 is 8.73%; in the test on KB-V1, 29.8%.

Consider `CC(C)N(CC[C@H](c1ccccc1)c1cc(CO)ccc1O)C(C)C`, for which the growth inhibition is below 0% in the test on KB-3-1 and 3.12% in the test with KB-V1.

On to `O=C(O[C@H]1CN2CCC1CC2)N1CCc2ccccc2[C@@H]1c1ccccc1` [Solifenacin succinate], for which the results for the growth inhibition with KB-3-1 and with KB-V1 were below 0% and 9.68%, respectively.

`COc1ccc([C@@H]2CC(=O)c3c(O)cc(O)cc3O2)cc1O` [Hesperetin]: the growth inhibition with KB-3-1 was below 0%; in the test on KB-V1, 2.8%.

For the compound `COCCOC(=O)C1=C(C)NC(C)=C(C(=O)OC(C)C)C1c1cccc([N+](=O)[O-])c1` (stereo not given) [Nimodipine], the growth inhibition in the test on KB-3-1 was determined as 48.8%; in the test with KB-V1, 21.1%.

For `C=C1C(=O)O[C@H]2[C@H]1CC/C(C)=C/CC[C@@]1(C)O[C@@H]21` [(-)-Parthenolide], the results for the growth inhibition in the test on KB-3-1 and in the test with KB-V1 were 27.4% and 43.9%, respectively.

With `CCCCCCCCc1ccc(CCC(N)(CO)CO)cc1` [Fingolimod (FTY720) HCl], the values for the growth inhibition in the test on KB-3-1 and in the test on KB-V1 were 36.2% and 11%, respectively.

With `c1ccc2c(Oc3nc(Nc4ccc(N5CCOCC5)cc4)c4ncn(C5CCCCC5)c4n3)cccc2c1` [Purmorphamine], the growth inhibition in the test on KB-3-1 is below 0%; in the test with KB-V1, 4.25%.

Take `OCCn1cc(-c2cnc3nnn(Cc4ccc5ncccc5c4)c3n2)cn1`: the growth inhibition in the test on KB-3-1 is 20.3%; in the test with KB-V1 it was 33.5%.

For the compound `CCOC(=O)N1c2ccc(C(F)(F)F)cc2[C@@H](N(Cc2cc(C(F)(F)F)cc(C(F)(F)F)c2)C(=O)OC)C[C@H]1CC` [Torcetrapib], the growth inhibition in the test with KB-3-1 was 7.68%; in the test with KB-V1 it was 56.5%.

Turning to `c1cn2cc(-c3ccc4cn[nH]c4c3)nc(Nc3ccc(N4CCOCC4)cc3)c2n1`, the growth inhibition in the test on KB-3-1 was 45.9%; in the test on KB-V1 it was below 0%.

For `C/C(=C\C(=O)Nc1ccccc1C(=O)O)c1ccc2ccccc2c1`, the values for the growth inhibition in the test with KB-3-1 and in the test on KB-V1 were 35% and 37.6%, respectively.

On to `CC#C[C@]1(O)CC[C@H]2[C@@H]3CCC4=CC(=O)CCC4=C3[C@@H](c3ccc(N(C)C)cc3)C[C@@]21C` [Mifepristone], for which the growth inhibition in the test with KB-3-1 was below 0%; in the test with KB-V1, 8.62%.

For `N#C/C(=C\c1ccc(O)c(O)c1)C(=O)NCc1ccccc1` [AG-490 (Tyrphostin B42)], the values for the growth inhibition with KB-3-1 and in the test on KB-V1 were 33.5% and 35.4%, respectively.

With `C[C@]12CC[C@@H]3c4ccc(O)cc4CC[C@H]3[C@@H]1CCC2=O` [Estrone], the growth inhibition in the test on KB-3-1 worked out at 26%; in the test on KB-V1, 11%.

For `COc1ccc2cc([C@H](C)C(=O)O)ccc2c1` [Naproxen], the growth inhibition in the test on KB-3-1 was determined as 27.1%; in the test on KB-V1, 7.89%.
